About 340 (0.77%) of roughly 44,000 compounds were called active. Inconclusive results (about 5%) are left out. The call rests on the fitted dose curve; in most records, active means well fitted inhibition curve with a large enough effect; inconclusive means small, poorly fitted or top-dose-only effect; inactive means flat fitted curve, though single readings scatter. Some of the results follow.
assay: Acumen qHTS Assay for Inhibitors of the mTORC1 Signaling Pathway in MEF (Tsc2-/-, p53-/-) Cells: Sytravon; details: phospho-rpS6 immunofluorescence/PI, 24 h; series mostly up to 38.3 µM; activity change, negative = inhibition: at the top concentration;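 further: plate controls were DMSO for no effect and rapamycin for full effect; nearly all actives have a fitted effect of over 50% in size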
Summary of the method: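 Readout is phospho-S6 Alexa 488 signal normalized to PI per well, reported as % active cells with thresholds set from rapamycin (7.5 nM) and DMSO controls. Cells: Tsc2-/-, p53-/- MEFs, 24 hrs compound at 37 C; PI cell number serves as viability.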

Row | SMILES | activity change, negative = inhibition
1 | COc1ccc(-n2nc(C(=O)Nc3cc(OC)c(OC)c(OC)c3)c(=O)n(C)c2=O)cc1 | inactive: -8.09%
2 | COc1ccc(-c2cc3ccc(O)c(CN4CCC(C)CC4)c3oc2=O)cc1 | inactive: -12%
3 | CC1=C(c2ccc(C)cc2)S(=O)(=O)NC1=NCCCN1CCN(c2ccccc2F)CC1 | inactive: 0.712%
4 | COc1ccc(-n2nc(C(=O)N3CCN(c4ccc(F)cc4)CC3)c3c4ccccc4n(C)c3c2=O)cc1 | inactive: 1.8%
5 | O=C(O)c1ccc(Nc2nc3ccccc3n3cnnc23)cc1 | inactive: 4.38%
6 | COc1ccc(C2CC(=O)N(Cc3ccc(F)cc3)c3ccccc3S2)cc1OC (centres undefined) | inactive: -10.6%
7 | CCCCCn1c(=O)[nH]c2cc(C(=O)NCc3ccc(Cl)cc3)ccc2c1=O | inactive: 4.67%
8 | COc1ccccc1C(=O)NCCn1cc(SCc2ccc(C)cc2)c2ccccc21 | inactive: -22.5%
9 | COc1ccc(OC)c2sc(N3CCN(C(=O)c4ccc5c(c4)CCCC5)CC3)nc12 | inactive: 0.324%
10 | CCc1ccccc1NS(=O)(=O)c1ccc2c(c1)CCN2C(=O)C1CC1 | inactive: 2.74%
11 | CCc1ccc(-c2nn(CC(=O)NC3CCCCC3)c3c2cnc2ccc(C)cc23)cc1 | inactive: 4.13%
12 | c1ccc(N2CCN(Cc3cccn3-c3nnc(N4CCN(C5CCCCC5)CC4)s3)CC2)cc1 | inactive: 2.24%
13 | O=C(CN1CCN(Cc2cccc(Cl)c2)C1=O)NCc1ccc(F)cc1 | inactive: -1.34%
14 | CCN(c1ccccc1C)S(=O)(=O)c1ccc(N2CCCCS2(=O)=O)cc1 | inactive: 11.5%
15 | CCOc1ccc(CCNC(=O)c2nn(-c3ccc(OC)c(Cl)c3)c(=O)c3c2c2ccccc2n3C)cc1OCC | inactive: -7.84%
16 | Cn1c(=O)c2cc(C(=O)NCCCN3CCN(c4cccc(Cl)c4)CC3)sc2c2ccccc21 | inactive: -0.903%
17 | Cc1nn(-c2ccccc2)c(-n2cccc2)c1C(=O)NCCc1ccc(Cl)cc1 | inactive: -2.58%
18 | CC(C)Cn1c(=O)c2sccc2n2c(CCCC(=O)NCCc3ccc(Cl)cc3)nnc12 | inactive: -2.2%
19 | O=C(Nc1ccc(Br)cc1)c1ccc(F)c(S(=O)(=O)N2CCCc3ccccc32)c1 | inactive: -11.7%
20 | O=C(COc1ccc(Br)cc1Cl)Nc1ncn[nH]1 | inactive: -3.64%
21 | COc1ccc(OCC(=O)Nc2ccc3c(c2)nc(CCNC(=O)c2ccco2)n3C)cc1 | inactive: 1.52%
22 | CCc1ccc(NC(=O)CSc2nc(-c3ccccc3Cl)nc3c2Cc2c(CO)cnc(C)c2O3)cc1 | inactive: 0.203%
23 | CCc1ccc2nc(N(Cc3cccnc3)C(C)=O)sc2c1 | inactive: 2.25%
24 | CCOc1ccccc1CNC(=O)c1cn(-c2ccc(OC)cc2)c(=O)c2ccccc12 | inactive: 6.81%

Row | SMILES | activity change, negative = inhibition
25 | COc1cccc(CNC(=O)CSc2n[nH]c(-c3ccccc3Cl)n2)c1OC | inactive: -7.91%
26 | COc1cccc(C2=C(C(C)=O)Sc3nnc(C4CCCCC4)n3N2C(C)=O)c1 | inactive: -6.94%
27 | CCOc1ccc(NC(=O)[C@H]2O[C@@H]3OC(C)(C)O[C@@H]3[C@H]3OC(C)(C)O[C@H]32)cc1 | inactive: -5.9%
28 | Cc1cccc(NC(=O)CSc2nc(=O)n(Cc3ccco3)c3c2CCC3)c1C | inactive: -2.6%
29 | Cc1cc(C)cc(NC(=O)C(=O)NCCCN2CCOCC2)c1 | inactive: -10.5%
30 | Cc1ccc2cc3cc(C(=O)N4CCN(c5ccccc5)CC4)oc3nc2c1 | inactive: -11.5%
31 | O=c1c(N2CCN(c3cccc(Cl)c3)CC2)csc2ccccc12 | inactive: -10.9%
32 | CCc1nn(CC(=O)NCc2ccccc2Cl)c(=O)c2cc3ccccc3n12 | inactive: -13.3%
33 | CCOc1ccc(CN(C(=O)c2nc(SC)ncc2Cl)C2CCS(=O)(=O)C2)cc1 (centres undefined) | inactive: 1.18%
34 | O=C(Nc1nc2ccc(S(=O)(=O)N3CCCC3)cc2s1)c1ccc(F)cc1 | inactive: 3.13%
35 | CC1CCCCN1CCCNC(=O)c1ccc2c(c1)sc1nc(-c3ccc(F)cc3)cn12 (centres undefined) | inactive: -1.31%
36 | CCc1ccc(Oc2c(C(F)(F)F)oc3c(CN4CCN(CC)CC4)c(O)ccc3c2=O)cc1 | inactive: -1%
37 | CCOC(=O)c1noc2ncnc(N3CCN(c4cccc(Cl)c4)CC3)c12 | inactive: 1.4%
38 | CCOC(=O)N1CCc2c(sc3c2c(=O)n(-c2ccc(Cl)cc2)c(=O)n3Cc2cccc(OC)c2)C1 | inactive: -7.97%
39 | COc1ccc(-c2nc3nc(C)cc(N4CCN(c5cccc(C(F)(F)F)c5)CC4)n3n2)cc1 | inactive: 3.34%
40 | COCCCNC(=O)c1ccc(Cn2c(=O)c3ccccc3n(CC(=O)Nc3ccc(C)cc3C)c2=O)cc1 | inactive: 4.09%
41 | CC(C)c1cc(C(=O)NC(C)c2ccccc2)no1 (centres undefined) | inactive: -5.99%
42 | Cc1cc(C)cc(NC(=O)Cn2nnc(C(=O)NCc3ccccc3Cl)c2N)c1 | inactive: -9.01%
43 | COc1ccc(CCNC(=O)c2cc3c(s2)-c2c(C)cccc2OC3)c(OC)c1 | inactive: -5.7%
44 | CCOc1ccc(C(=O)Nc2ccccc2C(=O)OCc2cc(=O)n3nc(C4CC4)sc3n2)cc1 | inactive: 1.04%
45 | Cc1cccc2c1-c1sc(C(=O)NCc3ccc(Cl)cc3)cc1CO2 | inactive: -3.29%
46 | Cc1cccc(N2CC(c3nc4ccccc4n3CCC3CCCCC3)CC2=O)c1 (centres undefined) | inactive: 1.28%
47 | CCc1ccc(S(=O)(=O)c2nnn3c2nc(Nc2cc(OC)cc(OC)c2)c2cc(Cl)ccc23)cc1 | inactive: -2.94%
48 | CCN(Cc1ccccc1)C(=O)c1cc2c(=O)oc3ccc(C)cc3c2s1 | inactive: -4.29%

Row | SMILES | activity change, negative = inhibition
49 | CN1C(C(=O)c2ccccc2)=C(NC(=O)c2ccccc2Br)c2ccccc2S1(=O)=O | inactive: -1.1%
50 | COc1ccc(NC(=O)Nc2cccc(OCc3cc(=O)n4cccc(C)c4n3)c2)c(OC)c1 | inactive: -0.752%
51 | COCCn1c(C)cc(O)c(C(c2ccc(Cl)cc2)N2CCN(c3ccccc3)CC2)c1=O (centres undefined) | inactive: 5.25%
52 | Cc1nc2ccc(S(=O)(=O)NC(C(=O)N3CCN(c4ccc(Cl)cc4)CC3)C(C)C)cc2s1 (centres undefined) | inactive: -6.71%
53 | CCc1ccc(NC(=O)Cc2csc(COc3cccc(C)c3)n2)cc1 | inactive: -4.83%
54 | O=c1n(Cc2ccc(Cl)cc2)c2ccccc2c2nc(-c3ccccc3)nn12 | inactive: -10.9%
55 | CCn1c(=O)cc(SCC(=O)NCCc2cccc(C)c2)c2ccccc21 | inactive: 0.555%
56 | O=S(=O)(c1ccc2[nH]c3c(c2c1)CCCC3)N1CCN(c2cccc(C(F)(F)F)c2)CC1 | inactive: -17.9%
57 | COc1cc(C2N=C(N)Nc3nc4ccccc4n32)ccc1OCC(=O)O (centres undefined) | inactive: -13.9%
58 | COc1ccc(-c2cc(C(C)=O)c(C)n2CCC(=O)Nc2ccc(C)cc2Cl)cc1 | inactive: -9.17%
59 | COc1ccc(-c2cc(C(=O)NCc3ccc(F)cc3)no2)cc1 | inactive: -6.78%
60 | COc1ccc(C(=O)NCC(c2ccc(N(C)C)cc2)N2CCCC2)cc1 (centres undefined) | inactive: -4.66%
61 | Cc1cc(C)cc(-n2ccnc2SCC(=O)Nc2ccc(C)cc2C)c1 | inactive: -3.33%
62 | CC(=O)c1ccc(N2CCN(c3nc4c(S(=O)(=O)c5ccc(C)c(C)c5)nnn4c4ccc(Cl)cc34)CC2)cc1 | inactive: -0.789%
63 | CCC(=O)N1CCc2cc(Br)cc(S(=O)(=O)CCC(=O)N3CCN(c4ccc(OC)cc4)CC3)c21 | inactive: 3.47%
64 | CCC(C(=O)Nc1cc(OC)ccc1OC)n1c(=O)c(C(F)(F)F)nc2ccccc21 (centres undefined) | inactive: -7.7%
65 | CCOc1ccc2oc(=O)cc(CN3CCN(Cc4ccc(F)cc4)CC3)c2c1 | inactive: -5.33%
66 | O=C(CCCn1c(=O)c2ccccc2n(CC(=O)Nc2cccc(Cl)c2)c1=O)NCc1ccc2c(c1)OCO2 | inactive: -1.75%
67 | CCC(=O)Nc1ccccc1-c1nc2ccccc2n(C(C)C(=O)Nc2cccc(Cl)c2C)c1=O (centres undefined) | inactive: -23.7%
68 | CC(C)c1ccc(Nc2ncnc3c2nc2n3CCCC2)cc1 | inactive: -10.8%
69 | COc1cc(NC(=O)CNC(=O)Cn2ccc3ccccc3c2=O)cc(OC)c1OC | inactive: 0%
70 | Cc1ccc(Cc2cnc(NC(=O)C3Cc4ccc(C)cc4C(=O)O3)s2)cc1 (centres undefined) | inactive: 14.2%
71 | COC(=O)c1cnn(-c2ccc(C(=O)Nc3ccc(OC(F)(F)F)cc3)cc2)c1N | inactive: -1.33%
72 | CCc1ccc(NC(=O)CN2CCSc3ccc(S(=O)(=O)N4CCCC4)cc32)cc1 | inactive: -0.245%

Row | SMILES | activity change, negative = inhibition
73 | COc1ccc(C(CNC(=O)c2cccc([N+](=O)[O-])c2)N2CCOCC2)cc1 (centres undefined) | inactive: -4.62%
74 | Cc1ccc(CNC(=O)Cn2c(=O)ccc3cc(S(=O)(=O)N4CCCC4)ccc32)cc1 | inactive: 1.39%
75 | CCOc1ccc(S(=O)(=O)c2cn(C)c3ccccc3c2=O)cc1 | inactive: 2.49%
76 | CCN(C(=O)c1cccn(Cc2ccccc2C)c1=O)c1ccccc1 | inactive: 0.576%
77 | CN(C)c1ccc(NC(=O)CN2C(=O)c3ccccc3Sc3ccc(C(=O)N4CCCC4)cc32)cc1 | inactive: -2.99%
78 | CCOC(=O)C1CCN(C(=O)Cn2ncc3c4ccccc4n(Cc4ccccc4F)c3c2=O)CC1 | inactive: -5.15%
79 | Cc1ccc(NC(=O)CN2C(=O)CCn3nc(-c4cccn4C)cc32)c(Cl)c1 | inactive: -4.67%
80 | Cc1nn(CCCC(=O)NCc2cccc(Cl)c2)c(=O)c2c1sc1ccccc12 | inactive: 0.241%
81 | Cc1nnc(NC(=O)CSc2nnc3c(n2)[nH]c2ccccc23)s1 | inactive: -8.92%
82 | Cc1cccc(N2CCN(CCCNC(=O)c3sc4ncccc4c3-n3cccc3)CC2C)c1 (centres undefined) | inactive: -8.93%
83 | O=c1n(Cc2ccc(F)cc2)nc2n1-c1cc(Cl)ccc1OC2 | inactive: -5.8%
84 | Cc1ccc(F)cc1NC(=O)c1ccc(Cn2nc(N3CCN(c4ccccc4)CC3)ccc2=O)o1 | inactive: -4.91%
85 | CCOc1ccccc1CNC(=O)c1cnc2c(-c3ccc(OCC)c(OCC)c3)c(C)nn2c1C | inactive: -2.88%
86 | COc1ccc(NC(=O)C2CCN(c3nc4ccccc4nc3C(F)(F)F)CC2)cc1 | inactive: 4.54%
87 | COc1ccc(-c2cn3nc(N4CCC(C(=O)Nc5ccc(Cl)cc5C)CC4)sc3n2)cc1 | inactive: 0.715%
88 | Cc1oc(-c2ccc(C(=O)NCCc3ccc(Cl)cc3)cc2)nc1CSc1ccccc1 | inactive: -1.42%
89 | Cc1ccc(-c2nc(SCC(=O)N3CCc4ccccc43)c3c(=O)n(C)c(=O)n(C)c3n2)cc1 | inactive: 2.53%
90 | COCCCNC(=O)c1c(NC(=O)c2cc(=O)c3ccccc3o2)sc2c1CCCC2 | inactive: -1.97%
91 | Cc1ccc(N2CCN(c3c(CN4CCCC4)c(=O)oc4ccccc34)CC2)c(C)c1 | inactive: 4.15%
92 | Cc1ccc(S(=O)(=O)n2nc(C)c(S(=O)(=O)N3CCC(C)CC3)c2C)cc1 | inactive: -0.672%
93 | O=C(NCc1ccccc1)c1ccc2c(c1)N(Cc1cccc(Cl)c1)C(=O)c1ccccc1S2(=O)=O | inactive: -0.126%
94 | CCOC(=O)C1CCC(CN(Cc2c(Cl)cccc2Cl)S(=O)(=O)c2ccc(Cl)cc2)CC1 (centres undefined) | inactive: 1.02%
